Experimental data from PubChem BioAssay AID360 (National Center for Advancing Translational Sciences (NCATS), 2006).
Among all 48,000 compounds or so, about 550 (1.1%) were called active. Roughly 4% stayed inconclusive and do not appear here. No stated cut-off is given here; in the data, active means potency below about 15 µM; inconclusive means mostly about 16 µM to 33 µM; inactive means weaker than that. The list shows a part of the results.

Target: Lysosomal acid glucosylceramidase (Homo sapiens) (UniProt P04062)
Assay: Glucocerebrosidase;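 further: the screen sought inhibitors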
Conditions: purified enzyme, resorufin glucoside fluorescence (screen aimed at inhibitors), 20 min
In short: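 Normal human glucocerebrosidase (0.2 nM final) was assayed with resorufin β-D-glucopyranoside (30 uM final) in 50mM citric acid/KH2PO4, 10mM sodium taurocholate, 0.01% tween-20, pH 5.9. Compounds were titrated; fluorescence (Ex 548, Em 600) read after 20 min at RT.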
Potency means the concentration at half of the fitted maximal effect.

Sequence of UniProt P04062 (P04062 whole entry, looked up): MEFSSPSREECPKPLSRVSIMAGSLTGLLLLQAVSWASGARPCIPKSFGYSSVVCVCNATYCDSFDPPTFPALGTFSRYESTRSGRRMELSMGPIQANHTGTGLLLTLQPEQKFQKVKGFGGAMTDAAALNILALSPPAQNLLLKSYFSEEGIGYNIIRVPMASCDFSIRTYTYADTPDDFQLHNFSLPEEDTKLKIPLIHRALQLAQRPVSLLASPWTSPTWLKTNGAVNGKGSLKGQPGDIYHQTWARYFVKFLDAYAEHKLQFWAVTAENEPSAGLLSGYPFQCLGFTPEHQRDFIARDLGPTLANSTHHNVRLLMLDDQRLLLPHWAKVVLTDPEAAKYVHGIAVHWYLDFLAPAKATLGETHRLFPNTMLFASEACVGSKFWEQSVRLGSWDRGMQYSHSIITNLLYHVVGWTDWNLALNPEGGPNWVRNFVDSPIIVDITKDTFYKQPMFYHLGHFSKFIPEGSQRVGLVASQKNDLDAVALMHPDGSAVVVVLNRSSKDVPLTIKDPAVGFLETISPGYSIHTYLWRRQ

Potency, inactive:
Nc1cc(Cl)ccc1N1CCOCC1 > 76.9 µM
CC(C)OC(=O)CN1CCN(C2c3ccccc3-c3ccccc32)CC1 > 76.9 µM
Cc1ccc(-c2ccc(=O)n(CC(=O)NCCCN3CCCCC3C)n2)cc1 (stereo not drawn) > 76.9 µM
O=C(CN1C(=O)NC2(CCCC2)C1=O)Nc1cccc(-c2nnc3n2CCCCC3)c1 > 76.9 µM
Cn1c(=S)[nH]c2cccnc21 > 76.9 µM
C[n+]1cnn2c1SCC1(COC1)C2 > 76.9 µM
CN1C(C)(C)CC(NC(=O)CCC(=O)NC2CC(C)(C)N(C)C(C)(C)C2)CC1(C)C > 76.9 µM
COc1ccc(C(=O)Nn2c(SCC(=O)NCC3CCCO3)nc3ccccc3c2=O)cc1 (stereo not drawn) > 76.9 µM
Cc1ccc(C(=O)CNc2nc3c(c(=O)[nH]c(=O)n3C)n2Cc2ccccc2)cc1 > 76.9 µM
COc1ccc(-n2ncc3c(NCCCN4CCOCC4)ncnc32)cc1
Cc1ccc(-c2nnn(CC(=O)Nc3ccc(S(=O)(=O)N4CCC(C)CC4)cc3)n2)cc1 > 76.9 µM
CCOC(=O)C1CCN(S(=O)(=O)c2ccc(OCC)cc2)CC1 > 76.9 µM
Cc1ccc(OCCCC(=O)Nc2ccc(S(=O)(=O)Nc3cc(C)on3)cc2)cc1 > 76.9 µM
Cc1ccc2c(C(=O)CN3CCN(c4ccccc4)CC3)c(C)[nH]c2c1 > 76.9 µM
C/C(Nc1ccc(F)cc1)=C(/C#N)C(N)=O > 76.9 µM
Cn1cc(CNC(=O)Nc2ccc3c(c2)OCO3)cn1 > 76.9 µM
CC(C)(C)SCCNC(=O)c1ccc(NS(C)(=O)=O)cc1 > 76.9 µM
O=C(CN1C(=O)c2ccccc2C1=O)Nc1nnc(C2CCCO2)s1 (stereo not drawn) > 76.9 µM
CC(C)=C(C#N)c1nc2ccccc2s1 > 76.9 µM
CCOC(=O)c1cnc(SCC(=O)N2CCc3ccccc32)nc1N > 76.9 µM
CCN(CC)S(=O)(=O)c1ccc(Nc2cc(C)nc3ncnn23)cc1 > 76.9 µM
COc1ccc(N2CCC(CNS(=O)(=O)c3cccc(C(F)(F)F)c3)C2)cc1 (stereo not drawn)
COc1ccc(-c2nnc(SCC(N)=O)n2N)cc1 > 76.9 µM
COc1ccc(-c2nnc(CSc3nc4ccccc4c(=O)n3CC3CCCO3)o2)cc1OC (stereo not drawn) > 76.9 µM
OCC#CCSc1nnc(-c2ccccc2Br)o1 > 76.9 µM
CCOC(=O)CC(=O)CSc1ncc(C(=O)OCC)c(N)n1 > 76.9 µM
Cc1nc(C)n(C(C)CC(=O)O)n1 (stereo not drawn) > 76.9 µM
COc1ccc(-c2cc(C(=O)N3CCN(C(c4ccccc4)c4ccccc4)CC3)no2)cc1OC > 76.9 µM
COc1ccccc1CN(Cc1ccco1)S(=O)(=O)c1ccc(-n2cnnn2)c(OC)c1 > 76.9 µM
Cc1ccc(NC(=O)c2ccco2)c(NC(=O)CN2C(=O)c3ccccc3C2=O)c1 > 76.9 µM
Cc1ccc(-n2nc3c(c2NC(=O)c2ccc(OC(C)C)cc2)CS(=O)C3)cc1 (stereo not drawn) > 76.9 µM
O=C(NCc1cccs1)c1cc(-c2cccc(Cl)c2)on1 > 76.9 µM
COc1ccc(OC)c(C(c2nnnn2CC2CCCO2)N2CCN(C)CC2)c1 (stereo not drawn) > 76.9 µM
OC(CN1C2=NCCN2c2ccccc21)c1ccc2c(c1)OCO2 (stereo not drawn) > 76.9 µM
c1ccc(CCc2ccccc2-c2nc(-c3ccccn3)no2)cc1 > 76.9 µM
Brc1ccc(NCc2nnc3n2CCCCC3)cc1 > 76.9 µM
CCOc1cc(N2CCOCC2)c(OCC)cc1NC(=O)c1nc2nc(C)cc(C)n2n1 > 76.9 µM
O=C(OCC(=O)N1CCCCC1)c1c[nH]c(=O)[nH]c1=O > 76.9 µM
Cc1ccc(N(C(=O)c2ccc3c(c2)OCO3)C2C=CS(=O)(=O)C2)cc1 (stereo not drawn) > 76.9 µM
N#CCCCn1c(-c2ccccc2)noc1=O > 76.9 µM
Cc1[nH]c2ccccc2c1C1(O)C(=O)N(Cc2ccc3c(c2)OCO3)c2ccccc21 (stereo not drawn) > 76.9 µM
Cc1cccc(-c2c3c(=O)n(C)c(=O)n(C)c3cn2C(C)(C)C)c1 > 76.9 µM
Cn1c(SCC(=O)N2CCCCC2)nc2cccnc21 > 76.9 µM
CC(C)CNS(=O)(=O)c1ccc(CCC(=O)N2CCOCC2)cc1 > 76.9 µM
CN(C(=O)COc1cccc(Br)c1)C1CCS(=O)(=O)C1 (stereo not drawn) > 76.9 µM
C=CCNc1nc(NCCO)nc(N2CCCC2)n1
CCOc1ccccc1N1CCN(C(=O)Nc2ccc(F)c(Cl)c2)CC1 > 76.9 µM
COc1ccc(-c2cc(CCCC(=O)NCCc3cc(OC)ccc3OC)no2)cc1 > 76.9 µM
Cc1ccc(-c2cc(C(=O)NCc3ccccn3)no2)cc1 > 76.9 µM
CC(C)(C)C(=O)[C@@H]1[C@@H]2C(=O)N(c3ccc4c(c3)OCCO4)C(=O)[C@@H]2C2c3ccccc3C=CN21 (stereo partly drawn) > 76.9 µM
Cn1c(SCc2nc3ccccc3n2CCO)nc2ccccc21 > 76.9 µM
O=c1c2[nH]c3ccccc3c2ncn1CCC1=CCCCC1 > 76.9 µM
COc1cc(NC(=O)Cn2nnc(-c3ccccc3N)n2)cc(OC)c1 > 76.9 µM
COc1ccc2[nH]c(=O)c(CN(C(=O)C3CCCO3)c3ccc(C)cc3)cc2c1 (stereo not drawn) > 76.9 µM
COc1ccc(-n2c(COc3ccccc3)nnc2SCC(N)=O)cc1 > 76.9 µM
COC(=O)c1cc(NC(=O)CSc2nnc(CN3CCOCC3)n2C)ccc1Cl > 76.9 µM
COC(=O)C1=C(N)OC2=C(C(=O)CC(C)(C)C2)C1c1cccnc1 (stereo not drawn) > 76.9 µM
CC(C(=O)OCC(=O)Nc1ccc2c(c1)OCO2)N1C(=O)c2ccccc2C1=O (stereo not drawn) > 76.9 µM
